The results in this text go back to the RNAGym collection of RNA variant scans (doi:10.1093/nar/gkz1192).

The source gives no read counts; variants with many changes may rest on few reads.

Sequences and labels used below:
B1: CPEB3 Ribozyme (parent)
chain: UAACAGGGGGCCACAGCAGAAGCGUUCACGUCGCAGCCCCUGUCAGAUUCUGGUGAAUCUGCGAAUUCUGCUGUAUAUCUC

The variants in the data set derive from B1. Nature of the data set: self-cleavage, relative activity (ratio to wild type); higher = more cleavage; in vitro, sequencing. The gist of the method:
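After error-prone PCR and barcoding, CPEB3 ribozyme mutant libraries were transcribed with T7 RNA polymerase at 37°C for 5 hours, then given 15 min with DNase I before an EDTA stop, and they cleaved during both steps. Reverse transcription with template switching preceded Illumina sequencing. Relative activity divides a variant's cleaved/total read fraction by the unmutated ribozyme's. At least 5 reads were required per variant, and three batches were averaged.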
In the case of U31G C37U A45U U72A, the self-cleavage is 0.07. Next, U31G A47G U78G: 0.7. The figure for U31G A47G U78C is 0.48. For the variant U31G U54A A64G C68U, the self-cleavage was found to be 0.36. Next, U31C U54C U69C A75G: 0.34; U31C U67A U69C U78C: 0.18. For U31C U49C G55A, the self-cleavage was 0.32. Next, U31C U54C A77U U78C: 1.01; U31C U51A A57G A64G U80C: 0.12; U31C U54C G63A U66C U80C: 0.21.

U31C U43A U48A U58A: the self-cleavage was 0.14.

On to U31C U74C A75G, for which the self-cleavage was found to be 1.13. Next, U31C U41C U54C U72C A77U: 0.98. The figure for U31C U72G A77G is 0.53; for U31C U48C U51C U60C it is 0.17. In the case of U31C U67C A77G, the self-cleavage was determined as 0.33. Regarding U31G A45U U48C A56G U66C U69C U80A, the self-cleavage is 0.08. With U31G A57G G73A, the self-cleavage came out at 1.14. Regarding U31G U43A U54A, the self-cleavage came out at 0.74. The figure for U31G U51A U72C is 0.6. As to U31C U48G U72C C79U, the self-cleavage is 0.23.

U31C U51G C62U: the self-cleavage came to 0.17. The figure for U31G U60G A65G is 0.09. Next, U31C U54A A64G: 0.39; U31C U54C A56G: 0.57; U31C U54C A56G U67A U69C: 0.52. Turning to U31C U48C U54C A56U, the self-cleavage amounted to 0.1.

As for U31G A47G U49C, the self-cleavage came out at 0.19.

As to U31G C38U A45U A56G A57U G63U A77U, the self-cleavage was 0.05. The figure for U31G C39G U43C U72A is 0.18.

On to U31C U72C C79A, for which the self-cleavage is 1.23. Next, U31C U72A U80A: 0.98; U31C U72A U80G: 0.65. The figure for U31C U41C A65G is 0.39.

For U31C U51A U69A, the self-cleavage is 0.46. Turning to U31C U60A U80A, the self-cleavage turned out to be 0.36. Consider U31C U41C U67A, for which the self-cleavage was found to be 0.32. Next, U31G U66C G73A: 0.23; U31G A56U U74C: 0.61; U31G A35G U78A: 1.24.

As for U31C U43C U69A U78C, the self-cleavage amounted to 0.39. For U31C U60A G63A, the self-cleavage stood at 0.27.

As for U31C U49C U54C C62U G63A U66C U80C, the self-cleavage is 0.1. On to U31G U48C U69C, for which the self-cleavage was 0.23.

As to U31G C32U U49G C50G U58C, the self-cleavage was found to be 0.14. The figure for U31C U58A U80C is 0.52; for U31C U48C G52A U78C it is 0.59. Next, U31C U48C U74A: 0.46; U31C U49C U74C C79U: 0.65. In the case of U31G U43C U54C, the self-cleavage came to 0.18. With U31C U49C A65G, the self-cleavage was determined as 0.13.

Turning to U31C U48C A57G, the self-cleavage came out at 1.03. U31C U51C A56G: the self-cleavage came out at 0.71. On to U31G A45C U80A, for which the self-cleavage worked out at 0.46. Next, U31C U72A C81U: 0.42; U31C U51G U66A: 0.34. The figure for U31C U49C A57U is 0.18.

For U31C U43A U67A, the self-cleavage turned out to be 0.5. As for U31C U54A A56G A57G U66A C71A U72C, the self-cleavage was found to be 0.17. The figure for U31C U48C U54G is 0.48; for U31C U80A C81U it is 0.96; for U31C U41C U51C A56U G63A U69A it is 0.17. As to U31G C32G U54C U66C C68A C79A, the self-cleavage stood at 0.17. The figure for U31C U43G A45G U67C A75G is 0.05.

As to U31C U48C U80A, the self-cleavage turned out to be 0.41. Regarding U31C U54C U66C U72C A77G U78C, the self-cleavage stood at 0.09. With U31C U60C U66C, the self-cleavage is 0.36.

With U31C U48C U78G, the self-cleavage was found to be 0.28. For the variant U31C U43C G61U A65G U69A, the self-cleavage was found to be 0.2. U31C U41C G63U: the self-cleavage was 0.98. As to U31C U41C A57U C81A, the self-cleavage was found to be 0.83. Next, U31C U58C A75G: 0.2; U31C U48C U54C U67A: 0.12; U31C U48C A65G: 0.08. Turning to U31G A35G U41A A57G A77G, the self-cleavage turned out to be 0.41. The figure for U31C U41C U67G U74C is 0.38; for U31C U51A U69C U76A it is 0.29.

In the case of U31C U66C U78C U80C, the self-cleavage was 0.11. For the variant U31C U41C U72C, the self-cleavage was 0.72. The figure for U31G C40G A57G A64U is 0.11; for U31G U51C U58C it is 0.14.

Take U31C U41C U69C U72A: the self-cleavage was 0.12. The figure for U31C U41C U69C U72C is 0.17. Turning to U31C U43C A56G, the self-cleavage was 0.16.

Consider U31C U48A U54A U72C U76C, for which the self-cleavage stood at 0.31. As to U31C U51C G63C A64U U80A, the self-cleavage came to 0.13. As for U31C U43A A57G U69A, the self-cleavage turned out to be 0.35. Turning to U31C U41G U72C, the self-cleavage came out at 0.31. Regarding U31G G42A U54C A57G G70U U72C, the self-cleavage is 0.08.

As to U31C U54G U58C, the self-cleavage was 0.21. Next, U31C U48C U69C: 0.19. Turning to U31C U43G U60C, the self-cleavage worked out at 0.22. Consider U31C U43G A45U G73A U76A, for which the self-cleavage amounted to 0.11. Regarding U31C U51C U72G, the self-cleavage is 0.26. Consider U31C U67C A75U, for which the self-cleavage came to 0.15. Next, U31C U60C U72A A77G: 0.17. Turning to U31C U43A A45G U49C A64C, the self-cleavage was determined as 0.07. As for U31G C32G U41C U54C U66C U67C U80C, the self-cleavage amounted to 0.08. For the variant U31G A56G A57G U60C, the self-cleavage amounted to 0.12. For the variant U31C U41G A56G, the self-cleavage came to 0.08. As to U31G U41C U66C U72A, the self-cleavage worked out at 0.14.

With U31C U41C U51A C59U, the self-cleavage was determined as 0.65.

In the case of U31C U60C C68A, the self-cleavage came out at 0.2. The figure for U31C U66G U72C is 0.25; for U31C U58C U74A it is 0.56; for U31C U41C U43G C59U it is 0.1. The figure for U31C U49C U67C is 0.22. The figure for U31C U49A U67C U80A is 0.28; for U31C U43C A64G U78C it is 0.07. Regarding U31C U43C U67C, the self-cleavage was 0.22. The figure for U31G C39U U60C is 0.13; for U31G U67C U78C U80C it is 0.12.

As for U31G G53U U72C U78G, the self-cleavage came out at 0.85.

On to U31G U43A U66G, for which the self-cleavage was determined as 0.18. Next, U31G U41C G63C U66C: 0.22. Next, U31G C40U U80C: 0.25; U31C U49A U60C: 0.16.

With U31C U43A U51G, the self-cleavage turned out to be 0.9. The figure for U31G A35U U43A U74A is 0.28; for U31C U60C A64U it is 0.43. Next, U31C U54A U69A: 0.26; U31C U49C U72C: 0.2; U31C U49C A64G: 0.29.

As for U31C U60C U76C, the self-cleavage came out at 0.57. For the variant U31C U58A U72C, the self-cleavage was found to be 0.23. Turning to U31G A35G U66A, the self-cleavage came out at 0.95. Next, U31C U48C A56C U69A: 0.11. Consider U31C U51C A64U U72G, for which the self-cleavage was determined as 0.18. For the variant U31C U43A U54A, the self-cleavage amounted to 0.76. The figure for U31C U51C A64G U76C U78C is 0.25; for U31C U51A U72C it is 1.06.

For U31G A56U U60C, the self-cleavage was found to be 0.38. Next, U31C U54C C68G: 0.32; U31G G63C A64G: 0.21; U31G U41A U51C U69C: 0.18.

Regarding U31C U58A U67C U72C, the self-cleavage was determined as 0.26.

Take U31G G42C U69C: the self-cleavage worked out at 0.19. As for U31C U49C C81U, the self-cleavage came to 0.48. The figure for U31G A56G A64U is 0.25; for U31C U48C A56G it is 0.4; for U31C U43G A45G it is 0.18. For U31G U43A U60A G61A, the self-cleavage stood at 0.17.

Turning to U31G C34U G46U U51A G55A A56U, the self-cleavage stood at 0.04. The figure for U31C U41C U60C is 0.2; for U31C U60C U78C U80C it is 0.2. As for U31C U60C U78C U80A, the self-cleavage came out at 0.2. The figure for U31G G63A A64C is 0.56; for U31G U43C U69A it is 0.17; for U31C U51A A56G C62A it is 0.17. The figure for U31G A47U U51C U58C U80C is 0.11; for U31C U43C C44A U66C A75G it is 0.29. Take U31C U60C U69C U72C: the self-cleavage is 0.43.

For U31C U49A U78C, the self-cleavage was 0.5. As to U31C U49A U78A, the self-cleavage came out at 0.48. Take U31C U48C U67C: the self-cleavage stood at 0.18. With U31C U66C U72G, the self-cleavage amounted to 0.25. Consider U31C U69C U80A, for which the self-cleavage worked out at 0.35. For the variant U31C U69C U80C, the self-cleavage was determined as 0.29. The figure for U31G C44U U72C is 0.07; for U31C U43A G46A A47G U60A U67C it is 0.09. For U31C U54A A65G U76A U78C, the self-cleavage worked out at 0.23.

As for U31C U54C U78C, the self-cleavage turned out to be 0.89. The figure for U31C U43C A57G is 0.42. For U31C U51A G63C, the self-cleavage worked out at 0.19. As for U31C U54A U67C A77U, the self-cleavage worked out at 0.25. The figure for U31C U41C C62G is 0.18; for U31G A45U A75G it is 0.37.
